Out of some 270,000 compounds screened, about 620 (0.23%) were called active. This list was built around the results that the source calls inconclusive (neither active nor inactive); the mix of calls is not that of the screen. Calls follow the shape of the dose curve; as a rule, active = well fitted inhibition curve with a large enough effect in the polarisation, with a control signal flat (not every such curve was filed as active); inconclusive = small, poorly fitted or top-dose-only effect, or effect the other way, or a change in a side signal; inactive = no such curve, though single readings can be large or run the other way; the % refers to the polarisation. Potencies beside an inconclusive call are fits to weak or partial responses and may not hold up. A note “side channel” means that the fit belongs to a control or component signal, not to the main read-out.
Target: Menin (Homo sapiens) (UniProt O00255)
Experiment: qHTS Assay for Inhibitors Targeting the Menin-MLL Interaction in MLL Related Leukemias: Competition With Texas Red Labeled MLL-derived Mutant Peptide; as to FP activity change, negative = inhibition: % of control where 0% means no effect
Settings: fluorescence polarization; FP activity change, negative = inhibition: at 61.6 µM (top of the series)
Potency is read from the fitted curve at half-maximal effect; tags tell the direction and shape of the fitted curve or compound fluorescence and quenching.

Chain of UniProt O00255 (O00255 whole entry, looked up): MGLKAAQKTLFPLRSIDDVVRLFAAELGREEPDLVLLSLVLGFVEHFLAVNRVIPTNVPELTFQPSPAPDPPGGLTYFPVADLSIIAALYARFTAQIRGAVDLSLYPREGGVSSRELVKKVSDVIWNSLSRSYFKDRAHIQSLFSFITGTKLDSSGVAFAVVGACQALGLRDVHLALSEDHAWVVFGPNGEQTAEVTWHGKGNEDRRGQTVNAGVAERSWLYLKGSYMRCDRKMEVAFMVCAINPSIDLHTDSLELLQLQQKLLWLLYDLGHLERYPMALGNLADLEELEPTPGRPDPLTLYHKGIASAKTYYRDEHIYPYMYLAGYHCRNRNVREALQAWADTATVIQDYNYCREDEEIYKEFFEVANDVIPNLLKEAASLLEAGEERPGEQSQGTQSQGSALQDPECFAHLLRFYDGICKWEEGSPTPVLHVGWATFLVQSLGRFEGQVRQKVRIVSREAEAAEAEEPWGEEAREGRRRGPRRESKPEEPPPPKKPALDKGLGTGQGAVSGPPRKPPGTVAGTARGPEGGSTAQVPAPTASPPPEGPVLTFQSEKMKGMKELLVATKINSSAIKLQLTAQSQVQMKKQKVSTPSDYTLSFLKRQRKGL

SMILES | Potency | FP activity change, negative = inhibition
Cc1ccc2c(COC(=O)c3ccccc3Cl)cc(=O)oc2c1 | inconclusive: 10 µM [fluorescent, side channel, single point] | 
Cc1ccc(-c2cnc(SCC(=O)N3CCCc4ccccc43)n2C)cc1 | inconclusive: 1.58 µM [fluorescent, side channel, full curve] | 
O=C(NCCC1=CCCCC1)C1CCC(CNc2nc(=S)[nH]c3ccccc23)CC1 (centres undefined) | inconclusive: 5.62 µM [inhibitor, full curve] | 
O=C(NCc1ccccc1Cl)C1CCN(S(=O)(=O)c2ccc(-n3cnnn3)cc2)CC1 | inconclusive: 35.5 µM [fluorescent, side channel, single point] | 
CCc1ccc(C(=O)COC(=O)CNC(=O)CNC(=O)Cc2ccccc2)cc1 | inconclusive: 39.8 µM [inhibitor, single point] | 
COc1ccc(N2CCN(CCNC(=O)Nc3cccc(C)c3C)CC2)cc1 |  | inactive: -7.41%
Cc1ccc(S(=O)(=O)N(C)c2ccc(OCC(=O)Nc3nc4ccccc4s3)cc2)cc1 | inconclusive: 22.4 µM [inhibitor, partial curve] | 
COc1ccc(OC)c(CCNC(=O)CSc2ccsc2[N+](=O)[O-])c1 | inconclusive: 39.8 µM [quencher, side channel, single point] | 
O=[N+]([O-])c1cc([N+](=O)[O-])c2nonc2c1Nc1ccccc1O | inconclusive: 35.5 µM [quencher, side channel, single point] | 
O=C(/C=C/c1ccccc1)Nc1ccc(N2CCCCC2)cc1 | inconclusive: 31.6 µM [quencher, side channel, partial curve] | 
CSc1ncccc1C(=O)Nc1nc2c(C)cccc2s1 | inconclusive: 35.5 µM [quencher, side channel, single point] | 
O=S(=O)(NCc1ccco1)c1ccc2c(c1)Cc1ccccc1-2 | inconclusive: 14.1 µM [quencher, side channel, partial curve] | 
CN(C)c1ccc(CNC(=O)[C@@]2(C)C=C[C@@H](Cc3ccccc3)N2C)cc1 |  | inactive: 0.26%
O=C(CSc1nc(O)cc(=O)n1C1CCCC1)Nc1cccc(Cl)c1Cl | inconclusive: 2.82 µM [inhibitor, full curve] | 
Oc1ccc(/C=C/c2nc(-c3ccccc3O)n(-c3ccccc3)n2)cc1 | inconclusive: 12.6 µM [quencher, side channel, partial curve] | 
O=C(Cc1ccc(Cl)cc1)Nc1cccc(S(=O)(=O)Nc2ccccc2F)c1 | inconclusive: 39.8 µM [quencher, side channel, single point] | 
CCOC(=O)c1[nH]c2ccc(F)cc2c1NC(=O)C(C)N1CCc2cc(OC)c(OC)cc2C1 (centres undefined) |  | inactive: 0.407%
COc1ccc(-c2csc(NC(=O)Nc3ccccc3)n2)cc1 | inconclusive: 2 µM [quencher, side channel, partial curve] | 
CC(C)c1ccc(NC(=S)Nc2cccc3ccccc23)cc1 |  | inactive: 17.8%
COc1cccc(C(=O)NCCCN2CCN(CCCNC(=O)c3cccc(OC)c3)CC2)c1 |  | inactive: -4.44%

SMILES | Potency | FP activity change, negative = inhibition
CC(C)C(CCNCc1ccccn1)c1ccc(Cl)cc1 (centres undefined) | inconclusive: 22.4 µM [fluorescent, side channel, partial curve] | 
Cc1ccc(S(=O)(=O)N(C)C)cc1NC(=O)CSc1ncc(C(F)(F)F)cc1Cl | inconclusive: 6.31 µM [inhibitor, single point] | 
O=C(OCC(=O)c1c[nH]c2ccccc12)c1cccc(S(=O)(=O)N2CCCCCC2)c1 | inconclusive: 10 µM [quencher, side channel, partial curve] | 
COc1c(Br)cc(C(N)=O)cc1OCc1ccccc1 |  | inactive: -14%
Cc1cccc(NC(=O)CSCC(=O)Nc2cc(Cl)ccc2N2CCN(C)CC2)c1 | inconclusive: 39.8 µM [quencher, side channel, single point] | 
C/C(N)=C(/C#N)C(=O)COC(=O)c1cc(-c2cccc(Br)c2)nc2ccccc12 | inconclusive: 3.55 µM [quencher, side channel, full curve] | 
Cc1cnc(C(=O)N2CCCC(C(=O)c3ccc(C(F)(F)F)cc3)C2)cn1 (centres undefined) | inconclusive: 25.1 µM [quencher, side channel, partial curve] | 
CCN(CC)c1ccc(NC2=C(Cl)C(=O)c3ccccc3C2=O)cc1 | inconclusive: 10 µM [inhibitor, partial curve] | 
COc1cccc(C(C(=O)NC2CCCCC2)N(C(=O)Cc2cccs2)c2ccc(-n3cnnn3)c(OC)c2)c1 (centres undefined) | inconclusive: 2.51 µM [inhibitor, single point] | 
O=C(NNc1c2ccccc2nc2ccccc12)c1ccc(Cl)cc1 | inconclusive: 11.2 µM [quencher, side channel, partial curve] | 
Cc1sc2ncn3ncnc3c2c1C | inconclusive: 0.708 µM [inhibitor, full curve, poor fit] | 
CCN(Cc1cnn(C)c1)C(=O)c1ccc(OC2CCN(S(=O)(=O)N(C)C)CC2)cc1 | inconclusive: 39.8 µM [inhibitor, partial curve] | 
CCc1cccc2c(-c3ccccc3)c3c(nc12)OCC3 |  | inactive: -14.8%
Cc1cc(C)cc(NC(=O)c2ccc(CSc3nnnn3C)cc2)c1 |  | inactive: 5.4%
COC(=O)c1cc(-c2cccs2)[nH]n1 | inconclusive: 35.5 µM [inhibitor, single point] | 
c1ccc(N2CCN(c3ncnc4c3oc3ccccc34)CC2)cc1 | inconclusive: 28.2 µM [inhibitor, single point] | 
COc1cccc(-c2cc(C(F)(F)F)nc(N3CCOCC3)n2)c1 |  | inactive: -0.52%
Cc1ccc(CNC(=S)Nc2ccc(C)c([N+](=O)[O-])c2)cc1 | inconclusive: 8.91 µM [quencher, side channel, partial curve] | 
COc1ccc(OC)c(-c2csc(NC(=O)CSc3ccccc3)n2)c1 | inconclusive: 39.8 µM [quencher, side channel, single point] | 

— PubChem BioAssay AID1768 (National Center for Advancing Translational Sciences (NCATS), 2009)
